{
  "source": "paper PMC6648895",
  "binders": {"B1": {"name": "Tsr4, Gal4 activation domain fusion (full-length) (protein, UniProt P25040 1-408)", "chain": "MSKIEELPPSDTDDHSYSSKPGDVFLAFVDAPVKETDDILVEDSFIGGEPKWLHPDSEPPAELLKCGACKSADNMKLLLQAFSPLDDEQMSAIQQRLGINNMSYINPQDDRVLYVFLCTECQRKGNSVRCIRGVKKNKNVDSLSEKMASTSLEKDFQINPFDLSNNSDSKCNAFSSNPFGGANANPFGADSINSNISQSKDEGKKKESATVSAKTARKLHDLQKDKEYDGNKCFKSCLLYVEEETFKNKKPAHLQLPKNLKIDKEALDLTGDEDLEKDPIKLDPRTEKLSKFLDDDTFQKFQEVVGYNPLQVLRYDLGGKPLLYAETKVDILSTVPRPGYNPSSQRIFEMQLMPKMIFDLEEVVSVDNGMEWGTILVFTDVENYMPEFDEHGVGYVEECVKVQWESRT"}, "B2": {"name": "Enp1 (protein, UniProt P38333 1-483)", "chain": "MARASSTKARKQRHDPLLKDLDAAQGTLKKINKKKLAQNDAANHDAANEEDGYIDSKASRKILQLAKEQQDEIEGEELAESERNKQFEARFTTMSYDDEDEDEDEDEEAFGEDISDFEPEGDYKEEEEIVEIDEEDAAMFEQYFKKSDDFNSLSGSYNLADKIMASIREKESQVEDMQDDEPLANEQNTSRGNISSGLKSGEGVALPEKVIKAYTTVGSILKTWTHGKLPKLFKVIPSLRNWQDVIYVTNPEEWSPHVVYEATKLFVSNLTAKESQKFINLILLERFRDNIETSEDHSLNYHIYRAVKKSLYKPSAFFKGFLFPLVETGCNVREATIAGSVLAKVSVPALHSSAALSYLLRLPFSPPTTVFIKILLDKKYALPYQTVDDCVYYFMRFRILDDGSNGEDATRVLPVIWHKAFLTFAQRYKNDITQDQRDFLLETVRQRGHKDIGPEIRRELLAGASREFVDPQEANDDLMIDVN"}, "B3": {"name": "Sef1, Gal4 domain fusion (protein, UniProt P34228 1-1148)", "chain": "MVKDNRDSDQDQDFSSAHMKRQPEQQQLQQHQFPSKKQRISHHDDSHQINHRPVTSCTHCRQHKIKCDASQNFPHPCSRCEKIGLHCEINPQFRPKKGSQLQLLRQDVDEIKSKLDTLLANDSVFVHLLQQIPMGNSLLNKLNLHPTPTPGTIIPNPDSSPSSGSPTSSAAQRDSKVSVQTYLSREPQLLQANQGSNTNKFKANNEASSHMTLRASSLAQDSKGLVATEPNKLPPLLNDSALPNNSKESLPPALQMAFYKNNSAGNTPNGPFSPIQKTYSPHTTSTTVTTTTNQPPFAATSHVATNNNADRTKTPVVATTTTMPLLPSPHANVDEFVLGDISISIEKANRLHHIFVTRYLPYFPIMYSNNATELYSQSQLLFWTVMLTACLSDPEPTMYCKLSSLIKQLAIETCWIRTPRSTHISQALLILCIWPLPNQKVLDDCSYRFVGLAKSLSYQLGLHRGEFISEFTRTQTSMPNAEKWRTRTWLGIFFAELCWASILGLPPTSQTDYLLEKALSCGDEESEEDNNDSIDNNNNDKRNKKDEPHVESKYKLPGSFRRLLSLANFQAKLSHIIGSSTSSPDGLLEPKYRAETLSILGKELDLLAKTLNFQSDDTVNIYFLYVKLTVCCFAFLPETPPTDQIPYVTEAYLTATKIVTLLNNLLETHQLIELPIYIRQAATFSALILFKLQLTPLLPDKYFDSARQSVVTIHRLYRNQLTAWATSVENDISRTASMLEKLNFVLIMHPEVFVEEDGIISRMRSHLTGSLFYDLVWCVHEARRREMDPEYNKQALEKAAKKRKFSSNGIYNGTSSTGGITDRKLYPLPLYNHISRDDFETVTKTTPSGTTVTTLVPTKNALKQAEKLAKTNNGDSDGSIMEINGIPLSMLGETGSVKFQSLFANTSNSNDYNNNRTLLDASNDISIPSNSIYPVASVPASNNNPQSTKVDYYSNGPSVIPDLSMKRSVSTPVNHFPASVPGLRNHPVGNLSNNVTLGIDHPIPREHSNLQNVTMNYNNQFSNANAIGRSQSSMSHSRTPIASKSNNMTDLHSVVSDPGSSKSTAYPPLSLFSKSNDINSNKTNQRFSTGTNTVTSSNFQTIDNENNVKTPGNKLTDFFQQQSAGWIEGNSSNDDFFGWFDMNMEQGF"}},
  "key": {"[1]": {"target": "T1, Rps2 first 22 amino acids, Gal4 DNA-binding domain fusion (S. cerevisiae) (UniProt P25443)", "T1 sequence": "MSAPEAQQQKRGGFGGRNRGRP", "assay": "two-hybrid; reporter strain PJ69-4A; bait fused to Gal4 DNA-binding domain (c-Myc), prey fused to Gal4 activation domain (HA); HIS3 reporter for weak, ADE2 reporter for strong interactions; plates 30°C, 3 days"}, "[2]": {"target": "T2, Rps2 ΔN42, Gal4 DNA-binding domain fusion (S. cerevisiae) (UniProt P25443)", "T2 sequence": "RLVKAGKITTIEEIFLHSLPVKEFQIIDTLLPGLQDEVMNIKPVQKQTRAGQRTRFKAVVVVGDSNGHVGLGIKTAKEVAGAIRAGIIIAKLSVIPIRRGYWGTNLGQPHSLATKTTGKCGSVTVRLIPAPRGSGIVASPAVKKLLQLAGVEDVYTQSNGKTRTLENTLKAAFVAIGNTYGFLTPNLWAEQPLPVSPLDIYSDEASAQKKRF", "assay": "two-hybrid; reporter strain PJ69-4A; bait fused to Gal4 DNA-binding domain (c-Myc), prey fused to Gal4 activation domain (HA); HIS3 reporter for weak, ADE2 reporter for strong interactions; plates 30°C, 3 days"}, "[3]": {"target": "T3, Rps2, Gal4 DNA-binding domain fusion (S. cerevisiae) (UniProt P25443)", "T3 sequence": "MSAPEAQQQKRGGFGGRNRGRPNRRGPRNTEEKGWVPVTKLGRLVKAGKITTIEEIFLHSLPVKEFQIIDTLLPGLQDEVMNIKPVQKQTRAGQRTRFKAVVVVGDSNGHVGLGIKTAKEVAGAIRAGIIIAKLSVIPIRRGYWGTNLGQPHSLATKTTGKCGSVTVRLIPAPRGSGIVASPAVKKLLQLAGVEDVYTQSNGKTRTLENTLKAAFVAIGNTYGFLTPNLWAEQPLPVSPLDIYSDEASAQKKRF", "assay": "two-hybrid; reporter strain PJ69-4A; bait fused to Gal4 DNA-binding domain (c-Myc), prey fused to Gal4 activation domain (HA); HIS3 reporter for weak, ADE2 reporter for strong interactions; plates 30°C, 3 days"}, "[4]": {"target": "T4, Rps2 ΔN22 (residues 23–254), Gal4 DNA-binding domain fusion (S. cerevisiae) (UniProt P25443)", "T4 sequence": "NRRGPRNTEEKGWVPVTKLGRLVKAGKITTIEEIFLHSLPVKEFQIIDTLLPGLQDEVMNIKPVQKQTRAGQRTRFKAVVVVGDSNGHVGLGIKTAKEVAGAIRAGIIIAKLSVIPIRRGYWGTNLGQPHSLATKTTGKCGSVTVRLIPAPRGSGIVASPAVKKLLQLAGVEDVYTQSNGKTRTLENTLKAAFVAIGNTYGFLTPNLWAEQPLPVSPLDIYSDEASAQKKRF", "assay": "two-hybrid; reporter strain PJ69-4A; bait fused to Gal4 DNA-binding domain (c-Myc), prey fused to Gal4 activation domain (HA); HIS3 reporter for weak, ADE2 reporter for strong interactions; plates 30°C, 3 days"}, "[5]": {"target": "T5, Rps2 N-terminal 42 amino acids, Gal4 DNA-binding domain fusion (S. cerevisiae) (UniProt P25443)", "T5 sequence": "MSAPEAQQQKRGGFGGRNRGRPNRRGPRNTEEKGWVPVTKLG", "assay": "two-hybrid; reporter strain PJ69-4A; bait fused to Gal4 DNA-binding domain (c-Myc), prey fused to Gal4 activation domain (HA); HIS3 reporter for weak, ADE2 reporter for strong interactions; plates 30°C, 3 days"}, "[6]": {"target": "T6, Nap1-TAP (S. cerevisiae) (UniProt P25293)", "T6 sequence": "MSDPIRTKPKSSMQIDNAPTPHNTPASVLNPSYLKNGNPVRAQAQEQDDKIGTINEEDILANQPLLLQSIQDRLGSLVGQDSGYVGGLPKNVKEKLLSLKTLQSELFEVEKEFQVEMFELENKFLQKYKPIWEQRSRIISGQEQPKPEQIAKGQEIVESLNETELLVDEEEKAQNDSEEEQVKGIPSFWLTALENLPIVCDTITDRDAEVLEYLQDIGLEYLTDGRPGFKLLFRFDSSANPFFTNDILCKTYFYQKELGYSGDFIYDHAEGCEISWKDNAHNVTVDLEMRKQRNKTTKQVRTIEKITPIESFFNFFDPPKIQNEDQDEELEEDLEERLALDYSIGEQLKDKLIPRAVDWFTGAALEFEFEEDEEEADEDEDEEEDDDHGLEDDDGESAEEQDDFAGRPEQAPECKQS", "assay": "co-IP; Nap1-TAP Rps6a-Flag split purification from yeast lysate: IgG Sepharose, TEV elution, then Calmodulin Sepharose or Anti-FLAG M2 Affinity Gel; Western blotting of eluates"}, "[7]": {"target": "T7, Rps6a-Flag (S. cerevisiae) (UniProt P0CX37)", "T7 sequence": "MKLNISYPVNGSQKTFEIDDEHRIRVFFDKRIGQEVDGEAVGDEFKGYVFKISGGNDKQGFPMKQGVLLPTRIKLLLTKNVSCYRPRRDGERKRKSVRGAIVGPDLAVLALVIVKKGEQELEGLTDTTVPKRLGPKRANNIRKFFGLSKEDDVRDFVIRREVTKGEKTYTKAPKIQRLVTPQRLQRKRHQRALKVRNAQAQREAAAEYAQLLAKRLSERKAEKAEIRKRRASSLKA", "assay": "co-IP; Nap1-TAP Rps6a-Flag split purification from yeast lysate: IgG Sepharose, TEV elution, then Calmodulin Sepharose or Anti-FLAG M2 Affinity Gel; Western blotting of eluates"}, "[8]": {"target": "T8, Rps15, Gal4 domain fusion (S. cerevisiae) (UniProt Q01855)", "T8 sequence": "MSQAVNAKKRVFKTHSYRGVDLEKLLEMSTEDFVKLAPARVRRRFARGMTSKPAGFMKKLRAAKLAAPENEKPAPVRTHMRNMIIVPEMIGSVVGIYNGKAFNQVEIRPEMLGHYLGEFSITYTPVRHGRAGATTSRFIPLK", "assay": "two-hybrid; reporter strain PJ69-4A; bait fused to Gal4 DNA-binding domain (c-Myc), prey fused to Gal4 activation domain (HA); HIS3 reporter for weak, ADE2 reporter for strong interactions; plates 30°C, 3 days"}},
  "note": "No constants are given. Whether binding was seen depends on the method and setting. For some assays here: Binding seen in cells or lysates may run through a third protein. Some binding calls cover weakened binding; strength is not graded here. For some assays here: Tags and fused reporters may be left off the sequences shown.",
  "data": [
    {"binder": "B1", "values": [
      {"measurement": "binding", "setting": "[1]", "value": "binds weakly"},
      {"measurement": "binding", "setting": "[2]", "value": "no binding"},
      {"measurement": "binding", "setting": "[3]", "value": "binds"},
      {"measurement": "binding", "setting": "[4]", "value": "binds weakly"},
      {"measurement": "binding", "setting": "[5]", "value": "binds"}
    ]},
    {"binder": "B2", "values": [
      {"measurement": "binding", "setting": "[6]", "value": "binds"},
      {"measurement": "binding", "setting": "[7]", "value": "binds"}
    ]},
    {"binder": "B3", "values": [
      {"measurement": "binding", "setting": "[8]", "value": "no binding"}
    ]}
  ]
}
